# Source: paper PMC4336329 (PLoS ONE, 2015)
# Hit rate of the full screen: of about 310,000 compounds, about 14,000 (4.5%) showed an effect of 50% or more. The effect is printed as a negative number. Some of the results follow.
# Target: human ether-à-go-go-related gene (hERG) potassium channel (human, UniProt Q12809)
# Assay: primary screen, population patch clamp on CHO cells stably expressing hERG
# 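Note: peak tail current of the secondary pulse compared with the same well before compound.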
# Sequence of human ether-à-go-go-related gene (hERG) potassium channel (Q12809 whole entry, looked up): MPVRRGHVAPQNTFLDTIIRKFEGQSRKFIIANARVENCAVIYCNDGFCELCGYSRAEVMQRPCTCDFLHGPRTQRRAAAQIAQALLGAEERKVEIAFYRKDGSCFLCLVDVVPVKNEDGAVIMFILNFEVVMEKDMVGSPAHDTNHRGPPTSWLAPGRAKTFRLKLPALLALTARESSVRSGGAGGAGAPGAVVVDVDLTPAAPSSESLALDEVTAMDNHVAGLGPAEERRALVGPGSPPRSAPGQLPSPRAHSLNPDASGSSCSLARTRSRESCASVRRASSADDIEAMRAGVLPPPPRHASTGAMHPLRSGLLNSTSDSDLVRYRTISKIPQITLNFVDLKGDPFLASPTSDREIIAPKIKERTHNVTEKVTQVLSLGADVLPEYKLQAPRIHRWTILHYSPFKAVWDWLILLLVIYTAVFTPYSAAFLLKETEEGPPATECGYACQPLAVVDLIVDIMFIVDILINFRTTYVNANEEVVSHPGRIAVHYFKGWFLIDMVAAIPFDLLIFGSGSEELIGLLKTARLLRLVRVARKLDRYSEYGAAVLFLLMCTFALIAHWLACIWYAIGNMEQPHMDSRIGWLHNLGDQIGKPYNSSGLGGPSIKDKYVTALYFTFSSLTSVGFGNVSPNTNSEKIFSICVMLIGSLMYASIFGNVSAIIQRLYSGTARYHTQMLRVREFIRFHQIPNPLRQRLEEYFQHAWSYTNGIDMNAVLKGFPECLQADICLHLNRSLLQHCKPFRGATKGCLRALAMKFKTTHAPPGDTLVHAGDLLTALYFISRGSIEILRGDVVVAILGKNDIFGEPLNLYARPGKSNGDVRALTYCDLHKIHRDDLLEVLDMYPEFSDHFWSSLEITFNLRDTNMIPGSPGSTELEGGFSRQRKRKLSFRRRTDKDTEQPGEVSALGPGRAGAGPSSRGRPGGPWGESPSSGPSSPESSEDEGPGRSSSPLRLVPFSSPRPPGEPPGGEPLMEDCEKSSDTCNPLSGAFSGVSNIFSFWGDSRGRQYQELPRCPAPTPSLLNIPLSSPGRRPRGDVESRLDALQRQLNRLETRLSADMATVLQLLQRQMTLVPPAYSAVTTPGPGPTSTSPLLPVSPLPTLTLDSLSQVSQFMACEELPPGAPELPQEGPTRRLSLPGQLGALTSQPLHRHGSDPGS
row,SMILES,"hERG current change (%, negative = inhibition) at 10uM [%]"
1,CC(=O)c1ccc(NC(=O)Cn2cnc(S(=O)(=O)N3CCc4ccccc43)c2)cc1,15.2
2,COc1ccc(OC)c(NC(=O)CSc2nncc3ccccc23)c1,8.9
3,Cc1ccc(NC(=S)NCc2ccc(Cl)cc2)c(C)c1,7.94
4,Cc1c(NC(=O)CSCc2ccc(Br)cc2)c(=O)n(-c2ccccc2)n1C,28.2
5,CC(=O)Nc1ccc(S(=O)(=O)N(Cc2cc3ccc(C)cc3[nH]c2=O)CC2CCCO2)cc1 (stereo not drawn),9.91
6,COc1ccc(CCNC(=O)C(C(=O)c2ccccc2)n2ccccc2=O)cc1OC (stereo not drawn),-0.768
7,O=C(c1ccc(S(=O)(=O)Nc2ccccc2)cc1)N1CCOCC1,7.64
8,COC(=O)CCCC1=CC2=C(c3ccccc3)C(=O)C(C)(OC(=O)C3CCCC3)C(=O)C2=CN1c1ccc(OC)cc1 (stereo not drawn),-32.5
9,COc1ccc(C(C(=O)NC2CCCC2)N(C(=O)c2ccco2)c2ccccc2C(C)=O)cc1OC (stereo not drawn),2.99
10,O=C1c2cccc3c([N+](=O)[O-])ccc(c23)C(=O)N1c1ccccn1,7.95
11,Cc1c(C)c2cc(Cl)c(OCC(=O)NC3CC(C)(C)NC(C)(C)C3)cc2oc1=O,-6.44
12,Cc1ccccc1C(=O)Nn1cnnc1,3.49
13,CCCC(C(=O)NC1CCCC1)N(Cc1ccc2c(c1)OCO2)C(=O)c1snc(C(N)=O)c1N (stereo not drawn),9.13
14,Cc1ccc(NC2CCCN(C(=O)c3cccs3)C2)cc1C (stereo not drawn),0.412
15,Cc1cc(C)c(NC(=O)C2CCCN2C(=O)NC2CCCCC2)c(C)c1 (stereo not drawn),4.84
16,Cc1ccc2oc(=O)c(/C=C(\O)C(C)(C)C)nc2c1,17.1
17,COC(=O)CCC(=O)c1oc2ccccc2c1NC(=O)CCCN1C(=O)c2ccccc2C1=O,-8.43
18,CCCCNC(=O)c1cn(CC(C)C)c(=O)c2c1c1ccccc1n2C,0.174
19,Cc1ccc(S(=O)(=O)N2CCN(C)CC2)c(C)c1N(C)S(=O)(=O)c1ccc(Cl)cc1,-68.7
20,CCOC(=O)N1CCc2c(sc(NC(=O)C3COc4ccccc4O3)c2C(N)=O)C1 (stereo not drawn),11.4
21,CC(C)(C)C1CCC(=NNC(=O)CN(c2ccccc2)S(C)(=O)=O)CC1 (stereo not drawn),6.6

row,SMILES,"hERG current change (%, negative = inhibition) at 10uM [%]"
1,O=C(CN1CCC(C(=O)c2ccc3c(c2)OCCO3)CC1)Nc1ccccc1F,-0.724
2,O=C(O)CC(NCc1ccco1)C(=O)Nc1cccc(O)c1 (stereo not drawn),14
3,COC(=O)CN1C(=O)[C@H]2[C@@H](C3CC3)N3C(=O)CN(CCO)C(=O)[C@@]3(Cc3ccccc3)[C@H]2C1=O,8.75
4,N/C(=N\N=C\c1ccc(O)cc1)c1nonc1N,10.2
5,O=C(NCc1cccnc1)c1ccc(COc2ccccc2Br)cc1,12.6
6,CC(C)(C)NC(=O)Cn1c(Cl)nc2ccccc21,27.9
7,CCOC(=O)C1CCCN(Cc2nc(N)nc(Nc3ccc(C)cc3)n2)C1 (stereo not drawn),-69.5
8,Cc1ccc(CS(=O)(=O)Cc2ccc(C(=O)NCc3cccnc3)o2)cc1,-17.4
9,COc1ccc(-c2c3c(=O)n(C)c(=O)n(C)c3cn2-c2ccccc2)cc1,4.72
10,O=C(Cn1nc(-c2ccc(Cl)cc2)ccc1=O)NCc1ccc2c(c1)OCO2,-12.5
11,O=C(CCN1C(=O)c2ccccc2C1=O)Nc1cccc(S(=O)(=O)N2CCCCC2)c1,-20
12,O=C(NCCO)c1ccc2[nH]c3ccccc3c2c1,9.18
13,CC(C)(C)n1nc2c(c1NC(=O)Cc1ccc([N+](=O)[O-])cc1)CS(=O)(=O)C2,-12.6
14,Cc1ccc(Nc2nc3ccccc3nc2Nc2c(C)n(C)n(-c3ccccc3)c2=O)cc1,10.4
15,CN(C)CCCn1cnc2c(c1=N)C(c1ccccc1)c1ccc3ccccc3c1O2 (stereo not drawn),-75.9
16,CC1CCCN(C(=O)C2CCN(C(=O)Nc3ccccc3)CC2)C1 (stereo not drawn),-7.96
17,Cc1ccc(-n2nnnc2SCC(=O)Nc2c(C)n(C)n(-c3ccccc3)c2=O)cc1,-4.6
18,COc1ccc(C(=O)N2CCN(C)C(C)C2)cc1OC1CCN(C(C)=O)CC1 (stereo not drawn),16.6
19,CCOc1cc(/C=C2/C(=N)N3N=C(C)SC3=NC2=O)ccc1OS(=O)(=O)c1ccc(C)cc1,0.16
20,O=C(/C=C/c1ccco1)NCc1ccccn1,11.3
21,FC(F)(F)c1ccc(NC2=NCCC2)cc1,-4
